# Data published in patent publication USRE39130E1 (Bayer Cropscience K.K., priority 1986, dated 2006).
# System: brown planthopper (Nilaparvata lugens) of a strain having resistance to organophosphate chemicals
# Assay: Test on planthoppers: brown planthopper (spray on rice plants, kill ratio)
# Assay type: in vivo
# Details: sprayed rice plants, kill ratio two days later, compared with W-1, W-2 and Q-1
smiles,measurement,value
"N#C/N=C1\NCCN1Cc1ccc(Cl)nc1 [Compound 5, 1-(2-chloro-5-pyridylmethyl)-2-cyanoiminoimidazolidine]",efficacy (kill ratio) compared with comparison compounds,considerably better efficacy
